Source: the supplement of paper PMC9542798

Assays:
Assay in all cases: minimum inhibitory concentration
Ampicillin = compound: CC1(C)S[C@@H]2[C@H](NC(=O)[C@H](N)c3ccccc3)C(=O)N2[C@H]1C(=O)O [Ampicillin]
Protocol: (§1)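 Broth microdilution MIC per ISO 10932 on precoated VetMIC Lact-1 plates (tylosin, vancomycin and ampicillin plates prepared manually) against lactic acid bacteria and bifidobacteria isolates. Plates were read visually after 48 h anaerobic incubation (bifidobacteria 72 h; enterococci and staphylococci 24 h aerobic) at species-specific temperatures of 30 or 37 °C. Values prefixed with < or > are outside the tested dilution range.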

Clindamycin = compound: CCC[C@@H]1C[C@@H](C(=O)N[C@@H]([C@H]2O[C@H](SC)[C@H](O)[C@@H](O)[C@H]2O)[C@H](C)Cl)N(C)C1 [Clindamycin]
Protocol: as §1

Erythromycin = compound: CC[C@H]1OC(=O)[C@H](C)[C@@H](O[C@H]2C[C@@](C)(OC)[C@@H](O)[C@H](C)O2)[C@H](C)[C@@H](O[C@@H]2O[C@H](C)C[C@H](N(C)C)[C@H]2O)[C@](C)(O)C[C@@H](C)C(=O)[C@H](C)[C@@H](O)[C@]1(C)O [Erythromycin]
Protocol: as §1

Tetracycline = compound: CN(C)[C@@H]1C(O)=C(C(N)=O)C(=O)[C@@]2(O)C(O)=C3C(=O)c4c(O)cccc4[C@@](C)(O)[C@H]3C[C@@H]12 [Tetracycline]
Protocol: as §1

Gentamicin = compound: CNC(C)C1CCC(N)C(OC2C(N)CC(N)C(OC3OCC(C)(O)C(NC)C3O)C2O)O1 [Gentamicin]
Protocol: as §1

Streptomycin = compound: CN[C@@H]1[C@H](O[C@H]2[C@H](O[C@H]3[C@H](O)[C@@H](O)[C@H](N=C(N)N)[C@@H](O)[C@@H]3N=C(N)N)O[C@@H](C)[C@]2(O)C=O)O[C@@H](CO)[C@H](O)[C@H]1O [Streptomycin]
Protocol: as §1

Vancomycin = compound: CN[C@H](CC(C)C)C(=O)N[C@H]1C(=O)N[C@@H](CC(N)=O)C(=O)N[C@H]2C(=O)N[C@H]3C(=O)N[C@H](C(=O)N[C@H](C(=O)O)c4cc(O)cc(O)c4-c4cc3ccc4O)[C@H](O)c3ccc(c(Cl)c3)Oc3cc2cc(c3O[C@@H]2O[C@H](CO)[C@@H](O)[C@H](O)[C@H]2O[C@H]2C[C@](C)(N)[C@H](O)[C@H](C)O2)Oc2ccc(cc2Cl)[C@H]1O [Vancomycin]
Protocol: as §1

Neomycin = compound: NC[C@@H]1O[C@H](O[C@H]2[C@@H](O)[C@H](O[C@@H]3[C@@H](O)[C@H](N)C[C@H](N)[C@H]3O[C@H]3O[C@H](CN)[C@@H](O)[C@H](O)[C@H]3N)O[C@@H]2CO)[C@H](N)[C@@H](O)[C@@H]1O [Neomycin]
Protocol: as §1

Kanamycin = compound: NC[C@H]1O[C@H](O[C@H]2[C@H](O)[C@@H](O[C@H]3O[C@H](CO)[C@@H](O)[C@H](N)[C@H]3O)[C@H](N)C[C@@H]2N)[C@H](O)[C@@H](O)[C@@H]1O [Kanamycin]
Protocol: as §1

Chloramphenicol = compound: O=C(N[C@H](CO)[C@H](O)c1ccc([N+](=O)[O-])cc1)C(Cl)Cl [Chloramphenicol]
Protocol: as §1
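Further: isolates derived from commercial starter, protective, probiotic or feed-additive cultures, from fermented products, from human gut mucosa or feces, and from human milk or colostrum.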

Test System | minimum inhibitory concentration (Ampicillin) [µg/mL] | minimum inhibitory concentration (Clindamycin) [µg/mL] | minimum inhibitory concentration (Erythromycin) [µg/mL] | minimum inhibitory concentration (Tetracycline) [µg/mL] | minimum inhibitory concentration (Gentamicin) [µg/mL] | minimum inhibitory concentration (Streptomycin) [µg/mL] | minimum inhibitory concentration (Vancomycin) [µg/mL] | minimum inhibitory concentration (Neomycin) [µg/mL] | minimum inhibitory concentration (Kanamycin) [µg/mL] | minimum inhibitory concentration (Chloramphenicol) [µg/mL]
Bifidobacterium adolescentis IM803 (strain group: human intestinal mucosa or faeces) | 0.125 | 0.06 | 0.25 | 1 | 128 | 128 | 0.5 | 128 | 1020 | 2
Bifidobacterium bifidum IM784 (strain group: human intestinal mucosa or faeces) | 0.125 | 0.12 | 0.25 | 16 | 128 | 128 | 0.5 | 128 | 512 | 2
Bifidobacterium animalis subsp. lactis IM1398 (strain group: probiotic strains) | 0.25 | < 0.03 | 0.06 | 8 | 64 | 64 | 0.5 | 32 | 256 | 1
Lactococcus lactis IM1428 (strain group: starter cultures) | 0.5 | 0.25 | 0.25 | 0.25 | 1 | 16 | < 0.25 | 4 | 4 | 4
Limosilactobacillus reuteri IM565 (strain group: probiotic strains) | > 16 | 0.25 | 1 | > 64 | 4 | 32 | > 8 | 4 | 128 | 8
Lactiplantibacillus plantarum IM1422 (strain group: starter cultures) | 2 | 1 | 0.5 | 16 | 4 | 64 | > 128 | 4 | 64 | 8
Lactobacillus gasseri IM814 (strain group: human milk or colostrum) | 0.5 | 4 | 0.03 | 2 | 1 | 1 | 1 | 16 | 16 | 4
Lactobacillus acidophilus IM1477 (strain group: starter cultures) | 1 | 4 | 0.12 | 1 | 4 | 8 | 0.5 | 8 | 64 | 4
Bifidobacterium animalis IM726 (strain group: human milk or colostrum) | 1 | < 0.03 | 0.06 | 8 | 32 | 16 | 2 | 64 | 128 | 2
Lactobacillus helveticus IM1446 (strain group: starter cultures) | 0.5 | 1 | 0.03 | 2 | < 0.5 | 1 | < 0.25 | < 0.5 | 8 | 2
Lactobacillus gasseri IM826 (strain group: human milk or colostrum) | 0.5 | 8 | 0.12 | 1 | 2 | 4 | 1 | 8 | 64 | 4
Lactococcus lactis IM1375 (strain group: starter cultures) | 0.25 | 0.25 | 0.5 | 0.25 | 2 | 16 | < 0.25 | 8 | 8 | 2
Leuconostoc pseudomesenteroides IM1436 (strain group: starter cultures) | 0.25 | < 0.03 | 0.12 | 1 | < 0.5 | 8 | > 128 | 1 | 16 | 4
Lactobacillus gasseri IM872 (strain group: human milk or colostrum) | 0.5 | 4 | 0.12 | 2 | 4 | 4 | 2 | 32 | 64 | 4
Bifidobacterium adolescentis IM756 (strain group: human intestinal mucosa or faeces) | 0.125 | 0.06 | 0.12 | 1 | 64 | 256 | 0.5 | 128 | 512 | 2
Bifidobacterium adolescentis IM769 (strain group: human intestinal mucosa or faeces) | 0.25 | 0.12 | 0.25 | 16 | 128 | 64 | 0.5 | 128 | 512 | 2
Bifidobacterium animalis subsp. lactis IM1392 (strain group: probiotic strains) | 0.5 | 0.06 | 0.06 | 8 | 64 | 64 | 0.5 | 128 | 512 | 1

Test System | minimum inhibitory concentration (Ampicillin) [µg/mL] | minimum inhibitory concentration (Clindamycin) [µg/mL] | minimum inhibitory concentration (Erythromycin) [µg/mL] | minimum inhibitory concentration (Tetracycline) [µg/mL] | minimum inhibitory concentration (Gentamicin) [µg/mL] | minimum inhibitory concentration (Streptomycin) [µg/mL] | minimum inhibitory concentration (Vancomycin) [µg/mL] | minimum inhibitory concentration (Neomycin) [µg/mL] | minimum inhibitory concentration (Kanamycin) [µg/mL] | minimum inhibitory concentration (Chloramphenicol) [µg/mL]
Bifidobacterium adolescentis IM767 (strain group: human intestinal mucosa or faeces) | 0.063 | 0.12 | 0.25 | 16 | 128 | 128 | 1 | 256 | 512 | 2
Bifidobacterium adolescentis IM779 (strain group: human intestinal mucosa or faeces) | 0.125 | 0.25 | 0.25 | 16 | 256 | 128 | 0.5 | 256 | 512 | 2
Bifidobacterium longum IM1337 (strain group: probiotic strains) | 0.063 | 0.06 | 0.25 | 1 | 4 | 16 | 0.5 | 16 | 32 | 1
Bifidobacterium adolescentis IM789 (strain group: human intestinal mucosa or faeces) | 0.063 | 0.06 | 0.25 | 16 | 128 | 64 | 0.5 | 32 | 512 | 2
Streptococcus thermophilus IM1377 (strain group: starter cultures) | < 0.032 | 0.12 | 0.5 | 1 | 2 | 16 | < 0.25 | 4 | 16 | 4
Limosilactobacillus fermentum IM687 (strain group: human intestinal mucosa or faeces) | 1 | 0.25 | 1 | 32 | 4 | 64 | > 128 | 4 | 128 | 8
Bifidobacterium longum IM802 (strain group: human intestinal mucosa or faeces) | 0.5 | 0.12 | 0.25 | 1 | 128 | 64 | 0.5 | 256 | 1020 | 4
Lactococcus lactis IM832 (strain group: starter cultures) | 1 | 0.12 | 0.5 | 0.5 | 4 | 32 | 0.5 | 4 | 4 | 4
Bifidobacterium adolescentis IM777 (strain group: human intestinal mucosa or faeces) | 0.25 | 0.12 | 0.25 | 16 | 128 | 128 | 0.5 | 256 | 512 | 2
Lactobacillus gasseri IM862 (strain group: human milk or colostrum) | 0.5 | 8 | 0.12 | 4 | 2 | 8 | 1 | 16 | 64 | 4
Lactococcus lactis IM1321 (strain group: non-starter strains) | 2 | 0.25 | 1 | 0.5 | 4 | 64 | 0.5 | 8 | 16 | 4
Bifidobacterium adolescentis IM796 (strain group: human intestinal mucosa or faeces) | 0.063 | 0.12 | 0.25 | 16 | 128 | 128 | 0.5 | 256 | 512 | 2
Lactococcus lactis IM1463 (strain group: protective cultures) | 0.5 | 0.12 | 0.25 | 0.25 | < 0.5 | 8 | < 0.25 | 1 | < 2 | 2
Bifidobacterium adolescentis IM673 (strain group: human intestinal mucosa or faeces) | 1 | 0.12 | 0.25 | 1 | 64 | 64 | 0.5 | > 256 | 1020 | 1
Bifidobacterium breve IM891 (strain group: human milk or colostrum) | 2 | 0.06 | 0.06 | 1 | 32 | 32 | 2 | 256 | 256 | 2
Lactobacillus gasseri IM1431 (strain group: starter cultures) | 1 | 2 | 0.06 | 4 | 2 | 4 | 2 | 8 | 32 | 4
